A collection of fitness landscapes (doi:10.1126/science.1257360)
The list shows a part of the results.

B1: PhoQ; a variant is named by its letters at X, in order, P23837 (parent)
chain: MKKLLRLFFPLSLRVRFLLATAAVVLVLSLAYGMVALIGYSVSFDKTTFRLLRGESNLFYTLAKWENNKLHVELPENIDKQSPTMTLIYDENGQLLWAQRDVPWLMKMIQPDWLKSNGFHEIEADVNDTSLLLSGDHSIQQQLQEVREDDDDAEMTHSVAVNVYPATSRMPKLTIVVVDTIPVELKSSYMVWSWFIYVLSANLLLVIPLLWVAAWWSLRPIEALAKEVRELEEHNRELLNPATTRELTSLVRNLNRLLKSERERYDKYRTTLTDLTHSLKTPLXXLQXXLRSLRSEKMSVSDAEPVMLEQISRISQQIGYYLHRASMRGGTLLSRELHPVAPLLDNLTSALNKVYQRKGVNISLDISPEISFVGEQNDFVEVMGNVLDNACKYCLEFVEISARQTDEHLYIVVEDDGPGIPLSKREVIFDRGQRVDTLRPGQGVGLAVAREITEQYEGKIVAGESMLGGARMEVIFGRQHSAPKDE

Variants of: B1
Experiment: enrichment ratio after two sorts for PhoP signalling (ratio (wild type AVST 3.29)); higher = more functional
Details: with PhoP (E. coli)

Point of comparison: TACS, enrichment ratio 14.1. Against it:
- AGGD — lower, ≤ 0.25
- PRGC — lower, ≤ 0.25
- FAPW — lower, ≤ 0.25
- WFGP — lower, 0.58
- FPKI — lower, ≤ 0.25
- GFQW — lower, ≤ 0.25
- HWYK — lower, ≤ 0.25
- VVQW — lower, ≤ 0.25
- YWFN — lower, ≤ 0.25
- SYCQ — lower, ≤ 0.25
- ELAN — lower, ≤ 0.25
- MNNI — lower, ≤ 0.25
- LGPE — lower, ≤ 0.25
- FALE — lower, 4.65
- HLWP — lower, ≤ 0.25
- KRVS — lower, ≤ 0.25
- VPGF — lower, ≤ 0.25
- AVLP — lower, ≤ 0.25
- KSCT — lower, ≤ 0.25
- RQFS — lower, ≤ 0.25
- PFVW — lower, ≤ 0.25
- AGYR — lower, ≤ 0.25
- ICRR — lower, ≤ 0.25
- FYAE — lower, ≤ 0.25
- RDNY — lower, ≤ 0.25
- SMIH — lower, ≤ 0.25
- TVCM — lower, 2.78
- IPMC — lower, ≤ 0.25
- VYDL — lower, ≤ 0.25
- WNNF — lower, ≤ 0.25
- VQAD — lower, ≤ 0.25
- DQMA — lower, ≤ 0.25
- PCKK — lower, ≤ 0.25
- SIRD — lower, ≤ 0.25
- TRVM — lower, 7.9
- DSDN — lower, ≤ 0.25
- DSHC — lower, ≤ 0.25
- DSTQ — lower, ≤ 0.25
- PMNS — lower, ≤ 0.25
- RAQK — lower, ≤ 0.25
- RNCP — lower, ≤ 0.25
- WYVQ — lower, ≤ 0.25
- GERP — lower, ≤ 0.25
- KMEQ — lower, ≤ 0.25
- ASRH — lower, ≤ 0.25
- MWMY — lower, ≤ 0.25
- FWRT — lower, ≤ 0.25
- TLHW — lower, ≤ 0.25
- SVSA — lower, 8.33
- MIHC — lower, ≤ 0.25
- RTPP — lower, ≤ 0.25
- AWPA — lower, ≤ 0.25
- PDDH — lower, ≤ 0.25
- FYHE — lower, ≤ 0.25
- KRIS — lower, ≤ 0.25
- THHR — lower, ≤ 0.25
- TMDN — lower, ≤ 0.25
- DCEV — lower, ≤ 0.25
- SACV — lower, 9.07
- IYSH — lower, ≤ 0.25
- SQYL — lower, ≤ 0.25
- HEAP — lower, ≤ 0.25
- PQIW — lower, ≤ 0.25
- VEDI — lower, ≤ 0.25
- NFAF — lower, ≤ 0.25
- DIYI — lower, ≤ 0.25
- GLQW — lower, ≤ 0.25
- EDQC — lower, ≤ 0.25
- CFPN — lower, ≤ 0.25
- LHHF — lower, ≤ 0.25
- EGFA — lower, ≤ 0.25
- WQTR — lower, ≤ 0.25
- NWSR — lower, ≤ 0.25
- WILV — lower, ≤ 0.25
- PTDN — lower, ≤ 0.25
- QMNF — higher, 36
- ALHW — lower, ≤ 0.25
- EIKA — lower, ≤ 0.25
- KGFE — lower, ≤ 0.25
- DSPG — lower, ≤ 0.25
- DAHM — lower, ≤ 0.25
- HNYL — lower, ≤ 0.25
- GWIS — lower, ≤ 0.25
- FHRK — lower, ≤ 0.25
- HYDL — lower, ≤ 0.25
- MPHV — lower, ≤ 0.25
- VQTL — lower, ≤ 0.25
- PTWA — lower, ≤ 0.25
- MHYK — lower, ≤ 0.25
- MMNS — lower, ≤ 0.25
- HQHV — lower, ≤ 0.25
- NTFR — lower, ≤ 0.25
- VFYL — lower, ≤ 0.25
- QGAG — lower, ≤ 0.25
- VQPP — lower, ≤ 0.25
- PLAA — lower, ≤ 0.25
- WDCY — lower, ≤ 0.25
- FKVI — lower, ≤ 0.25
- TGHA — lower, 4
- ANNY — lower, 6.43
- REGI — lower, ≤ 0.25
- DNMG — lower, ≤ 0.25
- HPGA — lower, ≤ 0.25
- KRNS — lower, ≤ 0.25
- WPYY — lower, ≤ 0.25
- TNHN — lower, ≤ 0.25
- LQQS — lower, ≤ 0.25
- TTWT — higher, 15
- RQPN — lower, ≤ 0.25
- FEPL — lower, ≤ 0.25
- NNAF — lower, ≤ 0.25
- SRQT — lower, ≤ 0.25
- IITF — lower, ≤ 0.25
- DRTS — lower, ≤ 0.25
- KPYN — lower, ≤ 0.25
- LSKW — lower, ≤ 0.25
- VPLC — lower, ≤ 0.25
- MYAT — lower, ≤ 0.25
- ACGL — lower, 2.96
- ASDN — lower, ≤ 0.25
- MVCV — lower, ≤ 0.25
- LSYE — lower, ≤ 0.25
- AMFM — lower, ≤ 0.25
- WMFF — lower, ≤ 0.25
- RGMD — lower, ≤ 0.25
- STED — lower, ≤ 0.25
- MRFD — lower, ≤ 0.25
- LALY — lower, ≤ 0.25
- YFAQ — lower, ≤ 0.25
- WRWL — lower, ≤ 0.25
- WCPF — lower, ≤ 0.25
- RCWM — lower, ≤ 0.25
- NYED — lower, ≤ 0.25
- ACCC — higher, 34.1
- CIIM — lower, ≤ 0.25
- YWYK — lower, ≤ 0.25
- SKYK — lower, ≤ 0.25
- LFPP — lower, ≤ 0.25
- TWSW — lower, ≤ 0.25
- SCWS — lower, ≤ 0.25
- SEPV — lower, ≤ 0.25
- RLHI — lower, ≤ 0.25
- LLLT — lower, ≤ 0.25
- SMKE — lower, ≤ 0.25
- FPQC — lower, ≤ 0.25
- PEHN — lower, ≤ 0.25
- FWCI — lower, ≤ 0.25
- HRAG — lower, ≤ 0.25
- TINS — lower, 9.25
- AIEV — lower, ≤ 0.25
- ITLL — lower, 7.22
- HSDM — lower, ≤ 0.25
- FIGC — lower, ≤ 0.25
- DTSH — lower, ≤ 0.25
- RSLK — lower, ≤ 0.25
- RWPG — lower, ≤ 0.25
- DSYL — lower, ≤ 0.25
- VHWQ — lower, ≤ 0.25
- RVCF — lower, ≤ 0.25
- KRWI — lower, ≤ 0.25
- FMPY — lower, ≤ 0.25
- RVHH — lower, ≤ 0.25
- IAWT — lower, ≤ 0.25
- GVMR — lower, ≤ 0.25
- LVIC — lower, ≤ 0.25
- FAKS — lower, ≤ 0.25
- ETDT — lower, ≤ 0.25
- DIRE — lower, ≤ 0.25
- LCWF — lower, ≤ 0.25
- DMSI — lower, ≤ 0.25
- TTQC — lower, 2.43
- WEAW — lower, ≤ 0.25
- NDCE — lower, ≤ 0.25
- FSAS — lower, ≤ 0.25
- FDIR — lower, ≤ 0.25
- FFVM — lower, ≤ 0.25
- FIMN — lower, ≤ 0.25
- KIHL — lower, ≤ 0.25
- VREV — lower, ≤ 0.25
- AGPM — lower, ≤ 0.25
- YPFV — lower, ≤ 0.25
- GNKE — lower, ≤ 0.25
- MMQP — lower, ≤ 0.25
- RITK — lower, ≤ 0.25
- KIFC — lower, ≤ 0.25
- HSPQ — lower, ≤ 0.25
- NRWF — lower, ≤ 0.25
- WGVM — lower, ≤ 0.25
- GESK — lower, ≤ 0.25
- IYQD — lower, ≤ 0.25
- ILKR — lower, ≤ 0.25
- YRFN — lower, ≤ 0.25
- GRAC — lower, ≤ 0.25
- HHPW — lower, ≤ 0.25
- ILDW — lower, ≤ 0.25
- RMFF — lower, ≤ 0.25
- FACE — lower, ≤ 0.25
- ECLI — lower, ≤ 0.25
- GIMT — lower, 12.6
- GAVV — lower, ≤ 0.25
- RMWK — lower, ≤ 0.25
- NYYI — lower, ≤ 0.25
- TSNA — lower, 10.2
- RWGH — lower, ≤ 0.25
- KIHQ — lower, ≤ 0.25
- AAAY — lower, ≤ 0.25
- TPSH — lower, ≤ 0.25
- FKHM — lower, ≤ 0.25
- LFGD — lower, ≤ 0.25
- PVCD — lower, ≤ 0.25
- FCFQ — lower, 0.361
- AACI — lower, 12.2
- PTQG — lower, ≤ 0.25
- PMTM — lower, ≤ 0.25
- NVWK — lower, ≤ 0.25
- QGVV — lower, ≤ 0.25
- VASA — lower, ≤ 0.25
- RPKR — lower, ≤ 0.25
- MKYD — lower, ≤ 0.25
- PVKP — lower, ≤ 0.25
- YFNC — lower, ≤ 0.25
- EYQR — lower, ≤ 0.25
- MWTD — lower, ≤ 0.25
- TDES — lower, ≤ 0.25
- GEQC — lower, ≤ 0.25
- THRI — lower, ≤ 0.25
- KYTN — lower, ≤ 0.25
- VFKT — lower, ≤ 0.25
- DCPQ — lower, ≤ 0.25
- HKWI — lower, ≤ 0.25
- KTAA — lower, ≤ 0.25
- PHTF — lower, ≤ 0.25
- GMHG — lower, ≤ 0.25
- ESHE — lower, ≤ 0.25
- FCKI — lower, ≤ 0.25
- SGWH — lower, ≤ 0.25
- NWLG — lower, ≤ 0.25
- LQNK — lower, ≤ 0.25
- RTYF — lower, ≤ 0.25
- EFYS — lower, ≤ 0.25
- IDYA — lower, ≤ 0.25
- DSKG — lower, ≤ 0.25
- VHVY — lower, ≤ 0.25
- QHKE — lower, ≤ 0.25
- GNFW — lower, ≤ 0.25
- GAFR — lower, ≤ 0.25
- AKRL — lower, ≤ 0.25
- CPSL — lower, ≤ 0.25
- IYIN — lower, ≤ 0.25
- SFEH — lower, ≤ 0.25
- MPLY — lower, ≤ 0.25
- WSTY — lower, ≤ 0.25
- GALG — lower, 3.78
- MDRN — lower, ≤ 0.25
- HNTN — lower, ≤ 0.25
- VIYQ — lower, ≤ 0.25
- QGFA — lower, 1.27
- EFLW — lower, ≤ 0.25
- LFDG — lower, ≤ 0.25
- FMLD — lower, ≤ 0.25
- YLFD — lower, ≤ 0.25
- MVGR — lower, ≤ 0.25
- SERW — lower, ≤ 0.25
- FMYV — lower, ≤ 0.25
- EKWC — lower, ≤ 0.25
- HIWP — lower, ≤ 0.25
- PITP — lower, ≤ 0.25
- MYAA — lower, ≤ 0.25
- YSTV — lower, 4.67
- MIRR — lower, ≤ 0.25
- LVDV — lower, ≤ 0.25
- VERC — lower, ≤ 0.25
- HCPL — lower, ≤ 0.25
- WMRR — lower, ≤ 0.25
- PHRM — lower, ≤ 0.25
- FMWK — lower, ≤ 0.25
- RIIR — lower, ≤ 0.25
- KHLD — lower, 2.17
- GHHQ — lower, ≤ 0.25
- VNFV — lower, ≤ 0.25
- WGYM — lower, ≤ 0.25
- MEQD — lower, ≤ 0.25
- PEFD — lower, ≤ 0.25
- LELR — lower, ≤ 0.25
- DNIL — lower, ≤ 0.25
- FNSE — lower, ≤ 0.25
- RARH — lower, ≤ 0.25
- ERWI — lower, ≤ 0.25
- YGTA — lower, ≤ 0.25
- VYYN — lower, ≤ 0.25
- WEVR — lower, ≤ 0.25
- FCKC — lower, ≤ 0.25
- WVYC — lower, ≤ 0.25
- PFKA — lower, ≤ 0.25
- GFFV — lower, ≤ 0.25
- YGMW — lower, ≤ 0.25
- TWHH — lower, ≤ 0.25
- ALRC — lower, ≤ 0.25
- NFER — lower, ≤ 0.25
- EAAA — lower, ≤ 0.25
- LHMG — lower, ≤ 0.25
- ANCG — higher, 26.6
- VYLA — lower, ≤ 0.25
- IWLF — lower, ≤ 0.25
- LLMR — lower, ≤ 0.25
